# Experimental data published in PubChem BioAssay AID2060336 (Molecular Pharmacology Branch, DTP, NCI, 2025).
# For part of its entries the source gives two or more results. The other results are left out here. The source may hold further records. The records of an entry repeat one measurement in other runs, samples, wells, individuals or studies.
# System: 958767-090-R-J1-PDC spheroid growth
# Test: Anticancer human tumor 958767-090-R-J1-PDC patient-derived head and neck squamous carcinoma cell line growth inhibition [IpAb]
# Details: spheroids with HUVEC and MSC; for viability, T/C: stronger effect = lower value
# From the text: Combinatorial screen of targeted agents with ipatasertib and abemaciclib in multi-cell type tumor spheroids
# A high-throughput screen of multi-cell type tumor spheroids was designed to identify active combinations of targeted small molecules and ipatasertib or abemaciclib. Complex spheroids include a stromal component modeled by human endothelial cells (HUVEC) and fibroblasts modeled by human mesenchymal stem cells (MSCs). The concentration ranges selected for each drug and investigational agent were based upon clinically achievable concentrations if the clinical Cmax of the agent was known.
# Compounds. The drugs and investigational agents: ipatasertib (NSC767898), abemaciclib(NSC768073), selumetinib (NSC741078), trametinib (758246), adavosertib (NSC754352), everolimus (NSC733504), sapanisertib (NSC764658), vemurafenib (NSC761431), venetoclax (NSC766270), copanlisib (NSC809693), apelisib (NSC765974), palbociblib (NSC758247), vemurafenib (NSC761431), dabrafenib (NSC764134), ravoxertinib (NSC781343), BMS-387032 (NSC767048), sotorasib (NSC818433), talazoparib (NSC767125) and afursertib (NSC778305), were obtained from the National Cancer Institute (NCI) Developmental Therapeutics Program Chemical Repository. The FDA-approved anticancer drug set is available from the NCI Developmental Therapeutics Program. […] The stock solutions were prepared in dimethyl sulfoxide (DMSO, Sigma-Aldrich, St. Louis, MO, cat. D2650) at 800-fold the tested concentration and stored at -70 degrees C prior to their use. All drugs and investigational agents were tested over a range starting from a high concentration at or near the clinical Cmax and decreasing in half-log increments. If the clinical Cmax for an agent had not been determined, the highest concentration tested was 10 microM.
# NCI60 Cell Culture. NCI60 cell lines were obtained from the NCI Developmental Therapeutics Program Tumor Repository. For each lot of cells, the Repository performed Applied Biosystems AmpFLSTR Identifiler testing with PCR amplification to confirm consistency with the published Identifier STR profile for each cell line. Cells were kept in continuous culture for no more than 20 passages. The optimal seeding densities for each of the cell lines at each time point assessed were determined prior to performing the concentration response studies. Briefly, the NCI60 human tumor lines were grown as monolayers in RPMI 1640 medium supplemented with 10% FBS and 2 mmol/L L-glutamine.
# An additional 9 lines were from the NCI60 cell line panel including MDA-MB-231 breast carcinoma, MDA-MB-468 breast carcinoma, MCF7 breast carcinoma, Hs578T breast carcinoma, MALME-3M melanoma, SK-MEL-2 melanoma, SK-OV-3 ovarian carcinoma, DU-145 prostate carcinoma, PC-3 prostate carcinoma, all cell lines along with major genetic alterations are listed on Table 2. Pooled donor human umbilical vein endothelial cells (HUVEC, Lonza, cat. CC-2519) and human mesenchymal stem cells (hMSC, Lonza, cat. PT-2501) were purchased from Lonza (Walkersville, MD).
# PDMR cell lines were grown in complete medium (DC medium): Dulbecco's modified Eagle's medium (DMEM)/F12 supplemented with 5% fetal bovine serum (FBS), 2 mM L-glutamine, 100 U/mL penicillin and 100 µg/ml streptomycin, 0.4 µg/ml hydrocortisone, 10 ng/ml epidermal growth factor (EGF) recombinant human protein, 24 µg/mL adenine, and 0.1 mg/mL primocin. During culture from frozen stock vials, PDMR cells were cultured in the same medium containing 10 µM Y-27632 (see Table 3). The PDCs were cultured in complete DMEM/F12 media without 10 microM Y-27632 dihydrochloride for at least two passages prior to the screen. The pooled donor HUVEC and hMSC were cultured in endothelial cell growth medium 2 (PromoCell, Heidelberg, Germany, cat. C-22011) and mesenchymal stem cell growth medium 2 (PromoCell, cat. C-28009), respectively. For all experiments, HUVEC and hMSC were used at passages </=5.
# […]
# 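Further: spheroids exposed to agents for 7 days.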
# 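Wherever viability, T/C is given: 100% = DMSO vehicle control wells.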
SMILES,"viability, T/C (compound alone 0.01 µM)","viability, T/C (compound alone 0.0316 µM)","viability, T/C (compound alone 0.316 µM)","viability, T/C (compound alone 3.16 µM)","viability, T/C (compound alone 10 µM)","IC50 (compound alone, run of 06/01/2021)"
CCN1CCN(Cc2ccc(Nc3ncc(F)c(-c4cc(F)c5nc(C)n(C(C)C)c5c4)n3)nc2)CC1,"90.9, 82.5, 84.7, 86.8, 101, 87.9, 71.2, 93.5, 86.5, 75.9, 79.4, 78.7, 83.6%","86.7, 93.3, 63.6, 86.3, 85, 71.7, 71, 83.4, 78, 71.3, 77, 81.1, 91.9%","75.8, 68.4, 65.8, 69.4, 70.5, 58.6, 63.5, 74.6, 56.2, 74.8, 81.6, 74.5, 73.8%",–,–,–
CC(C)NCC(C(=O)N1CCN(c2ncnc3c2C(C)CC3O)CC1)c1ccc(Cl)cc1 (configuration not stated),–,–,"83.4, 62.7, 69.5, 73.4, 69, 56.1, 54.7, 75.7, 84.4, 63.7, 65.7, 73.6, 81.7%","59.8, 43.9, 54.1, 60.2, 66.5, 47, 39.9, 56.2, 64.7, 51, 51.9, 54.7, 70.4%","54, 35.2, 48.9, 53.3, 57.7, 36.1, 28.2, 55, 70.9, 37.7, 35.8, 41.1, 64.5%","7.97 µM, 1.1 µM, 933 nM, 7.73 µM, > 10 µM, 670 nM, 745 nM, 1.64 µM, 1.02 µM, 2.86 µM"
